# Reference: PubChem BioAssay AID588855 (National Center for Advancing Translational Sciences (NCATS), 2011)
# In all, about 410,000 compounds went through this assay and about 5,000 (1.2%) were called active. Inconclusive means that the source gave no clear call. Such entries were picked first, then a sample of the others. Calls come from the whole dose curve; as a rule, active = well fitted inhibition curve with a large enough effect; inconclusive = small, poorly fitted or top-dose-only effect; inactive = no such curve, though single readings can be large or run the other way. A potency beside an inconclusive call is a rough fit, not a confirmed value.
# Assay: qHTS for Inhibitors of TGF-b; note: nearly all actives have a fitted effect of over 65% in size
# Settings: HepG2 CAGA-GFP TGF-b/SMAD3 reporter, GFP fluorescence, 18 h, TGF-beta stimulated, 500 pg/mL final; series mostly up to 46.1 µM; activity, negative = inhibition: at the top concentration
# How it was run: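 GFP signal (ex488/em500-530) from TGF-beta-stimulated HEPG2 CAGA-GFP cells, 500 pg/mL final, 18 h at 37 degrees C in DMEM plus 1% FBS, normalized to unstimulated and DMSO-stimulated controls.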
# % is set by controls: 0 for no effect and ±100 for the full control effect; potency is the fitted concentration of half-maximal effect; tags give direction and shape of the fitted curve.
Compound,"activity, negative = inhibition",Potency
O=C(/C=C/c1cccc(F)c1)N(c1ccccn1)C1CCCCC1,inactive: 2.18%,
C#CCOCCOCCOCCNc1nc(N2CCN(C(=O)CCCCCCCCCCNC(=O)Cn3cc(C[C@@H](C)O)nn3)CC2)nc(N2CCN(C(=O)CCCCCCCCCCNC(=O)[C@@H]([C@H](C)CC)n3cc(CCCCCN)nn3)CC2)n1,,active: 10 µM
CCC(Sc1nc2c(sc3ccccc32)c(=O)n1CCc1ccc(OC)c(OC)c1)C(=O)N(CC)CC (stereo not drawn),,"inconclusive: 35.5 µM [inhibitor, single point]"
CNc1c(NS(=O)(=O)c2ccc3c(c2)CCCC3)c(=O)oc2ccccc12,inactive: 0.92%,
COc1ccccc1C(=O)NC1CCN(C(=O)Nc2ccc(F)cc2)CC1,,"inconclusive: 22.4 µM [inhibitor, single point]"
Cc1ccc(C(C)C)c(OCc2ccc(C(=O)N/N=C/c3cccc(O)c3O)cc2)c1,,"inconclusive: 14.1 µM [inhibitor, partial curve, poor fit]"
Cc1cccc(CN2C(=O)c3ccccc3Sc3ccc(C(=O)NCc4ccco4)cc32)c1,,"inconclusive: 5.62 µM [inhibitor, single point]"
O=c1c2ccccc2nc(/C=C/c2cccc3ccccc23)n1-c1ccc(F)cc1F,inactive: -30.7%,
COC(=O)c1ccccc1NC(=O)c1noc2c1CCC2,,"inconclusive: 3.55 µM [inhibitor, single point]"
CC(OC(=O)c1ccc(Cl)c([N+](=O)[O-])c1)C(=O)N1CCN(Cc2ccccc2)CC1 (stereo not drawn),,"inconclusive: 12.6 µM [inhibitor, single point]"
CC(C)CC(=O)n1sc(NC(=O)c2ccccc2)nc1=O,,"inconclusive: 35.5 µM [inhibitor, single point]"
O=C1NCC(c2ccccc2)C1C(=O)N/N=C\c1ccc(-c2cccc(Cl)c2Cl)o1 (stereo not drawn),,"inconclusive: 22.4 µM [inhibitor, single point]"
COc1ccc(S(=O)(=O)Nc2nccs2)cc1OC,,"inconclusive: 8.91 µM [inhibitor, partial curve, poor fit]"
COc1ccc2c(CNCCc3ccc(SC)cc3)c(C(=O)O)n(Cc3ccc(F)cc3)c2c1,,"inconclusive: 20 µM [inhibitor, single point]"
CC(C)CCNC(=O)c1cccc(C(=O)NCCC(C)C)c1,inactive: 0%,
COc1ccc2c(c1)c(=O)c(C(=O)c1ccccc1)cn2CC(=O)Nc1ccc2c(c1)OCO2,inactive: -0.971%,
O=C(Nc1cccnc1)c1cc2c(s1)-c1ccccc1OC2,,"inconclusive: 35.5 µM [inhibitor, single point]"
COc1ccc(CCNC(=O)c2ccc3c(c2)CCN3S(C)(=O)=O)cc1OC,inactive: -27.9%,
CCn1c(NC(=O)c2cccs2)nc2ccccc21,inactive: -20%,
COc1ccc2oc3cc(C)[n+]([O-])c(-c4ccc(C)cc4)c3c2c1,,"inconclusive: 35.5 µM [inhibitor, single point]"
O=C1c2ccccc2-c2onc3c(N4CCN(C5CCCCC5)CC4)cc(NCCO)c1c23,inactive: -21.3%,
Cc1cc(C)c2nc(C)cc(Nc3ccc(C(=O)N(C)C)cc3)c2c1,inactive: 22.3%,
Fc1ccccc1/C=N/NC(=S)Nc1ccc(Cl)cc1Cl,inactive: -3.79%,

Compound,"activity, negative = inhibition",Potency
O=C(NC1CCCCC1)C(c1ccncc1)N(Cc1ccccc1)C(=O)c1ccc(-c2ccccc2)[nH]1 (stereo not drawn),,"inconclusive: 12.6 µM [inhibitor, partial curve]"
O=C(c1cccc(F)c1)N1CCN(C(=O)c2cc3nc(-c4ccco4)cc(C(F)(F)F)n3n2)CC1,inactive: 2.99%,
O=C(/C=C/c1ccccc1)NCCCNC(=O)/C=C/c1ccccc1,,"inconclusive: 35.5 µM [inhibitor, single point]"
Cc1cc(=O)c2cc(Br)ccc2[nH]1,inactive: 5.92%,
CC(C)c1ccc(NS(=O)(=O)c2ccc(-n3cccn3)cc2)cc1,,"inconclusive: 35.5 µM [inhibitor, single point]"
COc1cc2cc(CCCOC(=O)c3ccc(C#N)cc3)oc(=O)c2cc1OC,,"inconclusive: 12.6 µM [inhibitor, partial curve, poor fit]"
Cc1cccc(N2CCN(C(=O)Cn3sc4nc(C)cc(C)c4c3=O)CC2C)c1 (stereo not drawn),,"inconclusive: 35.5 µM [inhibitor, single point]"
COc1ccc(C(C(=O)NC2CCCCC2)N(C(=O)CCl)c2ccc(C)cc2)cc1 (stereo not drawn),,"inconclusive: 22.4 µM [inhibitor, partial curve, poor fit]"
CC(CCc1ccccc1)NC(=O)Cn1c(=O)nc(-c2ccccc2)c2cc(Cl)ccc21 (stereo not drawn),inactive: 0.063%,
Cc1noc(C)c1S(=O)(=O)N1CCC(C(=O)c2ccccc2)CC1,inactive: 15%,
Fc1ccc(/C=C2\CCCC3=C2Nc2ncnn2C3c2ccc(F)cc2)cc1 (stereo not drawn),,"inconclusive: 22.4 µM [inhibitor, single point]"
NNC(=O)Cn1nnc(-c2ccc(C(F)(F)F)cc2)n1,,"inconclusive: 12.6 µM [inhibitor, partial curve, poor fit]"
O=C(OCc1ccc(O)cc1)c1c(-c2ccsc2)oc2ccc(N3CCOCC3)cc12,,"inconclusive: 35.5 µM [inhibitor, single point]"
Oc1ccc(/C=N/N(c2ccccc2)c2ccccc2)cc1O,,"inconclusive: 35.5 µM [inhibitor, single point]"
Cc1nn(-c2ccccc2)c(N2CCCCC2)c1/C=N/O,,"inconclusive: 0.282 µM [inhibitor, full curve, poor fit]"
CCOc1ccc(NC(=O)CSC2=Nc3ccccc3C3=NC(CC(=O)NCc4cccs4)C(=O)N23)cc1 (stereo not drawn),inactive: 20.9%,
CC(C(=O)N(C)C1CCS(=O)(=O)C1)N1C(=O)/C(=C/c2ccc(F)cc2)SC1=S (stereo not drawn),,"inconclusive: 25.1 µM [inhibitor, single point]"
CCOC(=O)c1ccc(S(=O)(=O)Nc2cc(C(C)(C)C)no2)cc1,,"inconclusive: 6.31 µM [inhibitor, single point]"
Cc1cccc(N(C(=O)c2snc(C(N)=O)c2N)C(C(=O)NCC2CCCO2)c2cccs2)c1 (stereo not drawn),inactive: 7.19%,
Cc1cc(NC(=O)CSc2nc3ccccc3n2CC(C)C)no1,,"inconclusive: 35.5 µM [inhibitor, single point]"
Cc1ccc(S(=O)(=O)N2CCCC2C(=O)NCCc2ccccc2)cc1 (stereo not drawn),inactive: 12.3%,
O=[N+]([O-])c1cccc(C2CC(c3ccccc3)=NN2c2ccccc2)c1 (stereo not drawn),inactive: -25.1%,
O=C(CCNS(=O)(=O)c1ccccc1C(F)(F)F)NCCCN1CCOCC1,inactive: -1.03%,

Compound,"activity, negative = inhibition",Potency
C/C=C(/C(=C/C)c1ccc(O)cc1)c1ccc(O)cc1,,"inconclusive: 35.5 µM [inhibitor, single point]"
CC(=O)N1c2ccc(S(=O)(=O)N3CCC(C(=O)N4CCC(C)CC4)CC3)cc2CC1C (stereo not drawn),inactive: -21.2%,
Cc1cccc(/C=C/c2nc3ccccc3c(=O)[nH]2)c1,,"inconclusive: 3.16 µM [inhibitor, single point]"
COc1ccc(/C=N\NC(=O)c2ccccc2Cl)cc1COc1c(F)c(F)c(F)c(F)c1F,,"inconclusive: 3.55 µM [inhibitor, partial curve, poor fit]"
CC[C@@]12C(=O)N(c3cccc(F)c3)C(=O)N1[C@H](c1ccc(F)cc1)[C@@H]1C(=O)N(C3CCCCC3)C(=O)[C@@H]12,,"inconclusive: 3.55 µM [inhibitor, full curve, poor fit]"
N#CCCCc1cc2ccccc2cn1,inactive: 14.5%,
COc1ccc(CCN2C(=O)CSC2=Nc2ccc(C(C)C)cc2)cc1OC,,"inconclusive: 22.4 µM [inhibitor, partial curve, poor fit]"
CCCOc1ccc(CCCN=C(N)N)cc1Cl,,"inconclusive: 12.6 µM [inhibitor, partial curve]"
CCn1c(CN2CCN(c3ccc(Cl)cc3)CC2)nc2ccccc21,,"inconclusive: 0.631 µM [inhibitor, full curve, poor fit]"
CC(C)(C)OC(=O)N1CCN(C(=O)c2[nH]cnc2C(=O)N[C@@H](Cc2ccccc2)C(=O)OCc2ccccc2)CC1,,"inconclusive: 0.112 µM [inhibitor, full curve]"
COc1ccc(NC(=O)CCC2CCCCC2)cc1S(=O)(=O)N1CCCCC1,,"inconclusive: 10 µM [inhibitor, partial curve, poor fit]"
NS(=O)(=O)c1ccc(Nc2nc(-c3ccc(F)cc3)cs2)cc1,,"inconclusive: 17.8 µM [inhibitor, single point]"
O=C(Cc1ccccc1)NNC(=O)C1CC=CCC1 (stereo not drawn),inactive: -3.27%,
COc1ccc2nc(N(Cc3ccccc3)C(=O)CCNC(C)=O)sc2c1,,"inconclusive: 20 µM [inhibitor, single point]"
O=C(CN1CCOCC1)Nc1ccc(Cl)cn1,inactive: 7.85%,
O=C(O)CN=C(NS(=O)(=O)c1ccc(Cl)cc1)c1ccccc1,inactive: 4.69%,
CC(C)C1C(=O)N(Cc2cn(CC3CCCCC3)nn2)CCS(=O)(=O)N1Cc1ccc(-c2ccc(F)cc2)cc1 (stereo not drawn),,"inconclusive: 22.4 µM [inhibitor, single point]"
CN(C(=O)COC(=O)c1ccc(Cl)c(S(=O)(=O)NCc2ccccc2)c1)C1CCS(=O)(=O)C1 (stereo not drawn),inactive: -4.82%,
Cc1[nH]c2ccccc2c1/C=N/NC(=O)c1cccc(S(=O)(=O)Nc2cccc(C(F)(F)F)c2)c1,,active: 10 µM
Cc1cc(C)c(S(=O)(=O)NCCS(=O)(=O)N2CCN(c3ccccc3)CC2)c(C)c1,,"inconclusive: 12.6 µM [inhibitor, single point]"
COc1ccc(CN2CCN(Cc3ccc(C(F)(F)F)cc3)CC2)c(OC)c1,,"inconclusive: 35.5 µM [inhibitor, single point]"
N#Cc1c(N2CCCC2)nc(N)c2c(N)nc(N3CCCC3)cc12,,"inconclusive: 11.2 µM [inhibitor, partial curve, poor fit]"
